Reference: patent US20260146097A1 (TENTARIX BIOTHERAPEUTICS, published 2026)

B1: TNRX-257_AA (other)
heavy 1: EVQLVESGGGVVRPGGSLRLSCCASGFTFDDYGMSWVRRAPGKGLEWVAGINWNGGSTGYADSVKGRFTISRDNEKNCLYLQMNSLRAEDTALYHCASATSGTAFDIWGQGTMVTVSSPPGGEVQLVQSGAEVKKPGACVKISCKVSGYTFTRYYMHWVQRAPGKGLEWIGLVDPEDGETIYAEKFQGRVTITADTSTDTAYMELCSLRSEDTAVYYCATDFVKLDFSLSFQHWGQGTLVTVSSPPGGQGQGGQGGGQGGGQVQLVESGGGVVQPGRSLRLSCAASGFTFSSYGMHWVRQAPGKGLEWVAVIWYDGSNKYYADSVKGRFTISRDNSKNTLYLQMNSLRAEDTAVYYCAREWAVASWDYGMDVWGQGTTVTVSSASTKGPSVFPLAPSSKSTSGGTAALGCLVKDYFPEPVTVSWNSGALTSGVHTFPAVLQSSGLYSLSSVVTVPSSSLGTQTYICNVNHKPSNTKVDKKVEPKSCDKTHTCPPCPAPEAAGGPSVFLFPPKPKDTLMISRTPEVTCVVVDVSHEDPEVKFNWYVDGVEVHNAKTKPREEQYNSTYRVVSVLTVLHQDWLNGKEYKCKVSNKALPAPIEKTISKAKGQPREPQVYTLPPSREEMTKNQVSLTCLVEGFYPSDIAVEWESNGQPENNYKTTPPVLDSDGSFFLYSDLTVDKSRWQQGNVFSCSVMHEALHNHYTQESLSLSPGK
heavy 2: QVQLVESGGGVVQPGRSLRLSCAASGFTFSSYGMHWVRQAPGKGLEWVAVIWYDGSNKYYADSVKGRFTISRDNSKNTLYLQMNSLRAEDTAVYYCAREWAVASWDYGMDVWGQGTTVTVSSASTKGPSVFPLAPSSKSTSGGTAALGCLVKDYFPEPVTVSWNSGALTSGVHTFPAVLQSSGLYSLSSVVTVPSSSLGTQTYICNVNHKPSNTKVDKKVEPKSCDKTHTCPPCPAPEAAGGPSVFLFPPKPKDTLMISRTPEVTCVVVDVSHEDPEVKFNWYVDGVEVHNAKTKPREEQYNSTYRVVSVLTVLHQDWLNGKEYKCKVSNKALPAPIEKTISKAKGQPREPQVYTLPPSRKKMTKNQVSLTCLVKGFYPSDIAVEWESNGQPENNYKTTPPVLKSDGSFFLYSKLTVDKSRWQQGNVFSCSVMHEALHNHYTQKSLSLSPGK
light: [not shown - about 100 residues][not shown - about 120 residues]
B2: TNRX-257_GS_KH (other)
heavy 1: EVQLVESGGGVVRPGGSLRLSCCASGFTFDDYGMSWVRRAPGKGLEWVAGINWNGGSTGYADSVKGRFTISRDNEKNCLYLQMNSLRAEDTALYHCASATSGTAFDIWGQGTMVTVSSPPGGEVQLVQSGAEVKKPGACVKISCKVSGYTFTRYYMHWVQRAPGKGLEWIGLVDPEDGETIYAEKFQGRVTITADTSTDTAYMELCSLRSEDTAVYYCATDFVKLDFSLSFQHWGQGTLVTVSSPPGGSGGGGSGGGGSGGQVQLVESGGGVVQPGRSLRLSCAASGFTFSSYGMHWVRQAPGKGLEWVAVIWYDGSNKYYADSVKGRFTISRDNSKNTLYLQMNSLRAEDTAVYYCAREWAVASWDYGMDVWGQGTTVTVSSASTKGPSVFPLAPSSKSTSGGTAALGCLVKDYFPEPVTVSWNSGALTSGVHTFPAVLQSSGLYSLSSVVTVPSSSLGTQTYICNVNHKPSNTKVDKKVEPKSCDKTHTCPPCPAPEAAGGPSVFLFPPKPKDTLMISRTPEVTCVVVDVSHEDPEVKFNWYVDGVEVHNAKTKPREEQYNSTYRVVSVLTVLHQDWLNGKEYKCAVSNKALPAPIEKTISKAKGQPREPQVCTLPPSREEMTKNQVSLWCLVKGFYPSDIAVEWESNGQPENNYKTTPPVLDSDGSFFLYSKLTVDKSRWQQGNVFSCSVMHEALHNHYTQKSLSLSPGK
heavy 2: QVQLVESGGGVVQPGRSLRLSCAASGFTFSSYGMHWVRQAPGKGLEWVAVIWYDGSNKYYADSVKGRFTISRDNSKNTLYLQMNSLRAEDTAVYYCAREWAVASWDYGMDVWGQGTTVTVSSASTKGPSVFPLAPSSKSTSGGTAALGCLVKDYFPEPVTVSWNSGALTSGVHTFPAVLQSSGLYSLSSVVTVPSSSLGTQTYICNVNHKPSNTKVDKKVEPKSCDKTHTCPPCPAPEAAGGPSVFLFPPKPKDTLMISRTPEVTCVVVDVSHEDPEVKFNWYVDGVEVHNAKTKPREEQYNSTYRVVSVLTVLHQDWLNGKEYKCAVSNKALPAPIEKTISKAKGQPREPQVYTLPPCREEMTKNQVSLSCAVKGFYPSDIAVEWESNGQPENNYKTTPPVLDSDGSFFLVSKLTVDKSRWQQGNVFSCSVMHEALHNHYTQKSLSLSPGK
light: [not shown - about 100 residues][not shown - about 120 residues]
B3: TNRX-257_DS_N297G (other)
heavy 1: EVQLVESGGGVVRPGGSLRLSCCASGFTFDDYGMSWVRRAPGKGLEWVAGINWNGGSTGYADSVKGRFTISRDNEKNCLYLQMNSLRAEDTALYHCASATSGTAFDIWGQGTMVTVSSPPGGEVQLVQSGAEVKKPGACVKISCKVSGYTFTRYYMHWVQRAPGKGLEWIGLVDPEDGETIYAEKFQGRVTITADTSTDTAYMELCSLRSEDTAVYYCATDFVKLDFSLSFQHWGQGTLVTVSSPPGGQGQGGQGGGQGGGQVQLVESGGGVVQPGRSLRLSCAASGFTFSSYGMHWVRQAPGKGLEWVAVIWYDGSNKYYADSVKGRFTISRDNSKNTLYLQMNSLRAEDTAVYYCAREWAVASWDYGMDVWGQGTTVTVSSASTKGPSVFPLAPSSKSTSGGTAALGCLVKDYFPEPVTVSWNSGALTSGVHTFPAVLQSSGLYSLSSVVTVPSSSLGTQTYICNVNHKPSNTKVDKKVEPKSCDKTHTCPPCPAPELLGGPSVFCFPPKPKDTLMISRTPEVTCVVVDVSHEDPEVKFNWYVDGVEVHNAKTKPREEQYGSTYRVVSVLTVLHQDWLNGKEYKCKVSNKALPAPIECTISKAKGQPREPQVYTLPPSREEMTKNQVSLTCLVEGFYPSDIAVEWESNGQPENNYKTTPPVLDSDGSFFLYSDLTVDKSRWQQGNVFSCSVMHEALHNHYTQESLSLSPGK
heavy 2: QVQLVESGGGVVQPGRSLRLSCAASGFTFSSYGMHWVRQAPGKGLEWVAVIWYDGSNKYYADSVKGRFTISRDNSKNTLYLQMNSLRAEDTAVYYCAREWAVASWDYGMDVWGQGTTVTVSSASTKGPSVFPLAPSSKSTSGGTAALGCLVKDYFPEPVTVSWNSGALTSGVHTFPAVLQSSGLYSLSSVVTVPSSSLGTQTYICNVNHKPSNTKVDKKVEPKSCDKTHTCPPCPAPELLGGPSVFCFPPKPKDTLMISRTPEVTCVVVDVSHEDPEVKFNWYVDGVEVHNAKTKPREEQYGSTYRVVSVLTVLHQDWLNGKEYKCKVSNKALPAPIECTISKAKGQPREPQVYTLPPSRKKMTKNQVSLTCLVKGFYPSDIAVEWESNGQPENNYKTTPPVLKSDGSFFLYSKLTVDKSRWQQGNVFSCSVMHEALHNHYTQKSLSLSPGK
light: [not shown - about 100 residues][not shown - about 120 residues]
B4: TNRX-257_KH (other)
heavy 1: EVQLVESGGGVVRPGGSLRLSCCASGFTFDDYGMSWVRRAPGKGLEWVAGINWNGGSTGYADSVKGRFTISRDNEKNCLYLQMNSLRAEDTALYHCASATSGTAFDIWGQGTMVTVSSPPGGEVQLVQSGAEVKKPGACVKISCKVSGYTFTRYYMHWVQRAPGKGLEWIGLVDPEDGETIYAEKFQGRVTITADTSTDTAYMELCSLRSEDTAVYYCATDFVKLDFSLSFQHWGQGTLVTVSSPPGGQGQGGQGGGQGGGQVQLVESGGGVVQPGRSLRLSCAASGFTFSSYGMHWVRQAPGKGLEWVAVIWYDGSNKYYADSVKGRFTISRDNSKNTLYLQMNSLRAEDTAVYYCAREWAVASWDYGMDVWGQGTTVTVSSASTKGPSVFPLAPSSKSTSGGTAALGCLVKDYFPEPVTVSWNSGALTSGVHTFPAVLQSSGLYSLSSVVTVPSSSLGTQTYICNVNHKPSNTKVDKKVEPKSCDKTHTCPPCPAPEAAGGPSVFLFPPKPKDTLMISRTPEVTCVVVDVSHEDPEVKFNWYVDGVEVHNAKTKPREEQYNSTYRVVSVLTVLHQDWLNGKEYKCAVSNKALPAPIEKTISKAKGQPREPQVCTLPPSREEMTKNQVSLWCLVKGFYPSDIAVEWESNGQPENNYKTTPPVLDSDGSFFLYSKLTVDKSRWQQGNVFSCSVMHEALHNHYTQKSLSLSPGK
heavy 2: QVQLVESGGGVVQPGRSLRLSCAASGFTFSSYGMHWVRQAPGKGLEWVAVIWYDGSNKYYADSVKGRFTISRDNSKNTLYLQMNSLRAEDTAVYYCAREWAVASWDYGMDVWGQGTTVTVSSASTKGPSVFPLAPSSKSTSGGTAALGCLVKDYFPEPVTVSWNSGALTSGVHTFPAVLQSSGLYSLSSVVTVPSSSLGTQTYICNVNHKPSNTKVDKKVEPKSCDKTHTCPPCPAPEAAGGPSVFLFPPKPKDTLMISRTPEVTCVVVDVSHEDPEVKFNWYVDGVEVHNAKTKPREEQYNSTYRVVSVLTVLHQDWLNGKEYKCAVSNKALPAPIEKTISKAKGQPREPQVYTLPPCREEMTKNQVSLSCAVKGFYPSDIAVEWESNGQPENNYKTTPPVLDSDGSFFLVSKLTVDKSRWQQGNVFSCSVMHEALHNHYTQKSLSLSPGK
light: [not shown - about 100 residues][not shown - about 120 residues]

molecular target: T1, IL2Rs (IL2Rgamma/IL2Rbeta) on preactivated human PBMCs / CD8+ T cells (human, UniProt P14784 27-551; P31785 23-369); test: cell-based or functional assay
T1 sequence (looked up) 1: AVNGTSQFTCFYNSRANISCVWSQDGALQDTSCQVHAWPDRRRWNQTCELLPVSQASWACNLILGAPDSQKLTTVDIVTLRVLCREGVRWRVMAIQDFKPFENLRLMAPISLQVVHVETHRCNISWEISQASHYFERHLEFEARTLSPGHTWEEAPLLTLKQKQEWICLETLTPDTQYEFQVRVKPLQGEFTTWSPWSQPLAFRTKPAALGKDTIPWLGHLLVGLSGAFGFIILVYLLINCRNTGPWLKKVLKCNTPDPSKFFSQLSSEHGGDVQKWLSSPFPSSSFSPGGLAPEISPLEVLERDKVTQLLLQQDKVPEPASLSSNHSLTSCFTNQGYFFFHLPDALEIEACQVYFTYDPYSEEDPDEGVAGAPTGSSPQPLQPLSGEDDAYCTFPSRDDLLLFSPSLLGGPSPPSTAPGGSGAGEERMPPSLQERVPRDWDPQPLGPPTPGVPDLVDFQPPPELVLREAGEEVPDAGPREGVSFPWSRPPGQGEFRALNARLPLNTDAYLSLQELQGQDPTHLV
T1 sequence (looked up) 2: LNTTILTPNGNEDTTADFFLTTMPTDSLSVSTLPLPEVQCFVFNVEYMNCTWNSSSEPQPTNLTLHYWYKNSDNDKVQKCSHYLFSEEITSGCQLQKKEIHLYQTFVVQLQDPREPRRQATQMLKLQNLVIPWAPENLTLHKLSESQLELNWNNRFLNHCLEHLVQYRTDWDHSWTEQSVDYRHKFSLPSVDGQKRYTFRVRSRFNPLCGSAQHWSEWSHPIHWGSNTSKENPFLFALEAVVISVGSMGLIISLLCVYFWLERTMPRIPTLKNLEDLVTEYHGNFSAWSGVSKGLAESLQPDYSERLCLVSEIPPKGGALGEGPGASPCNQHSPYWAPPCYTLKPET

Row | Binder | pSTAT5 EC50 | pSTAT5 EMAX (Mean Fluorescence Intensity)
1 | B1 | 0.82 nM | 63000 Mean Fluorescence Intensity
2 | B2 | 0.83 nM | 60000 Mean Fluorescence Intensity
3 | B3 | 1.63 nM | 61000 Mean Fluorescence Intensity
4 | B4 | 0.72 nM | 62000 Mean Fluorescence Intensity
